Experimental data taken from the supplement of paper PMC12632987.
Whole data set: some 1,800 sequences, median “median log2 fold change of GCK-ALFA target abundance (FLAG IP / Myc IP barcode read proportion)” near 0.14, cut for the lowest 2% near -0.84. The list shows a part of the results.

B1: traf2_out_13_95_1096 (protein)
chain: SKELAEKIMEIADKMLDEVEKLLEELLKEAKKAGKLEEEVTEALNLARYRSINEAIHLLEELAKKHPEFKELYEKTIKEIKEIIKEAGKEVAKLIKEEKE
B2: traf2_out_11_169_878 (protein)
chain: EEAEFNRKVNDFALELNDEAKAELKEFALKLAKELGLDVAEVEAIFEKNKNSSLSAVAAALIEYFKSKGKEEAAKKILEKHEELKEEINKKFSEKLKELK
B3: traf2_out_17_178_1684 (protein)
chain: SKEEERKKISELTDQLIDLTEATGAELLARARAEGTITPEELAALEAARRAGSNRTFTALAERIVPKLASAAEAQALLDAFKARARELEKGIAEEYEKYE
B4: traf2_out_6_156_2435 (protein)
chain: MVEEIFEKTLKEIKELIKKLAEASEEKKIVYLNKIAGAVKRGLQELRDAGASLEEIKEFGERLLEEVKKLLEKSGLDESTKNLIIGSINAVIDVAIAEKA
B5: traf2_out_1_27_1005 (protein)
chain: STEEEEELLREANRKIGRATPEERIEIIEEAVREALERGLESPVHIAVVLILSLGEREERERAIEAVERVLREGGLSEEEIELMRRRVESGWARLDRLLA
B6: traf2_out_11_169_779 (protein)
chain: EEAEKNRKINDFALELNDKAKEKLKEEALKLAKEAGLDEEEIKKIFEENKNKSLSAVAAALIKYFESKGKEEEAAKVLEKYEELKDEINKKSSEFIKSLE
B7: traf2_out_20_3_2120 (protein)
chain: SELEEELEEELEEALKLLKKAAELSDPETAKRLEELIERLKASRELSPSDRLVVVSEVRREVLELAEEAARRGDEELAKILEEAADALNEAAGLLLKIAE
B8: traf2_out_18_167_1891 (protein)
chain: EEELRKELEEASDRLVELSDIRRAAREILEALERDPAEARALLAAALAAHPDSAVLKALAEVAATGDPAALRAALEAAIAALQKEANEAYKKMEELRKKL

Target: T1, TRAF2, Q12933
T1 chain: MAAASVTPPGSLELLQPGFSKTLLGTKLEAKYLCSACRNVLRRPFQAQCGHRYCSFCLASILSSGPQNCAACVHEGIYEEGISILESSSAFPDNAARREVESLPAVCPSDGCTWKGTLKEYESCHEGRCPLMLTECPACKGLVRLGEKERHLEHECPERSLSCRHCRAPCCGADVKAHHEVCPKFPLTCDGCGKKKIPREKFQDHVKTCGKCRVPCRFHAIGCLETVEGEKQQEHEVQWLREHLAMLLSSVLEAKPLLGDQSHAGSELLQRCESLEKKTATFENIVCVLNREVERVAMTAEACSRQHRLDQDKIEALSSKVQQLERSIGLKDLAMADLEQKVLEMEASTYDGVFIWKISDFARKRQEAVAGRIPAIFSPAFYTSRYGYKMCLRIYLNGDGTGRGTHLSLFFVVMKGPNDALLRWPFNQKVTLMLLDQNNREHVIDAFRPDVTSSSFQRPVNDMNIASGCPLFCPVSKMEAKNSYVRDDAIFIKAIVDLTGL
Test: median log2 fold change of GCK-ALFA target abundance (FLAG IP / Myc IP barcode read proportion) (log2 ratio); each designed protein is fused to an ALFA-tag nanobody in HEK293 cells to bring the named protein to FLAG-tagged glucokinase (GCK); Myc marks an untargeted standard; higher = target protein stabilised (more abundant)
Conditions: target protein: 3xFLAG-MCP-GCK-ALFA reporter; HEK293 landing pad (RPLP)
How it was run: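 Sequencing of reverse-transcribed, amplified circular RNA barcodes from anti-FLAG and anti-Myc immunoprecipitates provided the readout for an ALFA-nanobody-fused binder library recombined into HEK293 landing-pad cells. Those cells were induced with 2 μg mL^−1 doxycycline, transfected with a plasmid expressing a FLAG-tagged target and a Myc-tagged standard, and lysed after 48 h. Target abundance is the per-binder median log2 ratio of FLAG to Myc barcode read proportions. Only barcodes at a proportion of ≥10^−7 in both replicates and binders with ≥3 barcodes per replicate were kept, with a 10^−6 pseudocount added before the two replicates were pooled.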

| Binder | median log2 fold change |
| --- | --- |
| B1 | -0.702 |
| B2 | 0.161 |
| B3 | 0.341 |
| B4 | 0.167 |
| B5 | 0.184 |
| B6 | 0.368 |
| B7 | 0.341 |
| B8 | 0.264 |
